# Measured values reported in PubChem BioAssay AID881 (National Center for Advancing Translational Sciences (NCATS), 2007).
# In all, about 110,000 compounds went through this assay and about 610 (0.55%) were called active. Inconclusive results, whose numbers are uncertain, are shown with a selection of clear calls. The call rests on the fitted dose curve; in most records, active means well fitted inhibition curve with a large enough effect; inconclusive means small, poorly fitted or top-dose-only effect; inactive means no such curve, though single readings can be large or run the other way. Potencies of inconclusive entries are doubtful fits and often do not repeat.
# Molecular target: Polyunsaturated fatty acid lipoxygenase ALOX15B (Homo sapiens) (UniProt O15296)
# Assay: qHTS Assay for Inhibitors of 15-hLO-2 (15-human lipoxygenase 2); further: nearly all actives have a fitted effect of over 60% in size
# Settings: purified 15hLO-2, xylenol orange hydroperoxide absorbance; activity change, negative = inhibition: at 57.1 µM (top of the series) unless noted
# Summary of the method: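 Purified human 15hLO-2 (50 nM) preincubated 15 min with compound, then 45 uM arachidonic acid for 90 min at RT in 25 mM Hepes pH 7.5, 0.01% Triton X-100. Hydroperoxide detected by Fe-xylenol orange; 573/405 nm absorbance ratio.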
# On the % scale 0 is the no-effect control and ±100 the full control effect; potency means the concentration at half of the fitted maximal effect; tags describe the fitted curve by direction and shape.
# Sequence of UniProt O15296 (O15296 whole entry, looked up): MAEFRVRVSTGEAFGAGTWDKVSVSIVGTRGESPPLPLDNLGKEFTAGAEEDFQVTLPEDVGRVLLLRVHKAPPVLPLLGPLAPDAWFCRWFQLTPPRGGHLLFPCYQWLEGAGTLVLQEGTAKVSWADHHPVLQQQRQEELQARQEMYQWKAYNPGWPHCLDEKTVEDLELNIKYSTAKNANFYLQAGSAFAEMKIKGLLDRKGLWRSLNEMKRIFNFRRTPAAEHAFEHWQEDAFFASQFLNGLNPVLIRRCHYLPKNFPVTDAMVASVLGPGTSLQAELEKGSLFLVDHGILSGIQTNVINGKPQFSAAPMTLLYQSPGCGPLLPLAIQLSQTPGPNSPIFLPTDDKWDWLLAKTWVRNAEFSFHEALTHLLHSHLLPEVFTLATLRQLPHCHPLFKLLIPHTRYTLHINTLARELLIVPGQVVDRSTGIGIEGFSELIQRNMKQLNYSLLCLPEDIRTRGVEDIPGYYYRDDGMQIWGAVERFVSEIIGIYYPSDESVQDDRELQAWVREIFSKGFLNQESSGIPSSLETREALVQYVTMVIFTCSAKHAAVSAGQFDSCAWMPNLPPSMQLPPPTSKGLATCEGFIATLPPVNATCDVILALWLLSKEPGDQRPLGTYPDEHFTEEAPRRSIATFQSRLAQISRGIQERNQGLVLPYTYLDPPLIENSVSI
SMILES,Potency,"activity change, negative = inhibition"
Cc1ccc(CC2CC(=O)N(Cc3ccco3)C2=O)cc1 (stereo not given),"inconclusive: 25.1 µM [inhibitor, partial curve]",
Cc1ccc(-n2c(CCC(=O)O)ccc2-c2cccs2)cc1,"inconclusive: 12.6 µM [inhibitor, partial curve]",
CC(C)CCNC(=O)CCCOc1cc(=O)n(C)c2ccccc12,inactive,
COc1ccc(CNC(=S)Nc2cc(C)ccc2C)cc1,"inconclusive: 25.1 µM [inhibitor, partial curve]",
O=C1C=CC(=C(c2ccc(O)cc2)c2ccc(O)cc2)C=C1,"inconclusive: 31.6 µM [inhibitor, single point]",
CCCC(C(=O)NC1CCCC1)N(C(=O)Cn1nnc(-c2ccc(C)o2)n1)C1CCCC1 (stereo not given),"inconclusive: 3.98 µM [inhibitor, full curve]",
Cc1ccc(-c2csc(NC(=O)c3cccs3)n2)cc1,inactive,
O=C(N/C(=C/c1ccc2c(c1)OCO2)C(=O)N1CCOCC1)c1cccs1,"inconclusive: 0.316 µM [inhibitor, full curve, poor fit]",
O=c1c(-c2ccc(O)cc2)coc2cc(O)cc(O)c12,inactive,
OCc1ccc(-c2ccc(-c3ccc(CO)s3)o2)s1,"inconclusive: 17.8 µM [inhibitor, partial curve]",
CC(C)c1ccc(O)c(N)c1,active: 5.01 µM,
COc1cc(OC)c2c(-c3cccc(-c4ccc(C#N)cc4)c3)cc(=O)oc2c1,"inconclusive: 35.5 µM [inhibitor, single point]",
CC(N=Cc1cccc(O)c1O)c1ccccc1 (stereo not given),"inconclusive: 1 µM [inhibitor, full curve, poor fit]",
N#Cc1ccc(CSc2nnc(-c3cccs3)n2-c2ccccc2)cc1,inactive,
CCC(C)(C)C1CCC(=NNC(=O)c2ccoc2C)CC1 (stereo not given),inactive,
COc1ccc2c(c1)N(C)/C(=C1/SC(=NCc3ccccc3)N(c3ccccc3)C1=O)S2,,inactive: -17.1% [at 11.4 µM]
CC(=O)c1ccc(NC(=O)Cn2nc(C)cc2C)cc1,"inconclusive: 0.251 µM [inhibitor, full curve, poor fit]",
COc1cccc(-c2ccc3ncnc(N4CCN(C)CC4)c3c2)c1,inactive,
COc1ccc(-c2cc(C(F)(F)F)c(C#N)c(SCC(=O)Nc3ccccc3C#N)n2)cc1,"inconclusive: 7.94 µM [inhibitor, partial curve]",
Cc1cc(C)n(CCc2nc(-c3ccco3)cs2)n1,"inconclusive: 7.94 µM [inhibitor, partial curve]",
c1csc(CNc2ccnc(-c3ccoc3)n2)c1,inactive,
COC(=O)c1ccc(COc2ccc(/C=C(\C#N)c3nc4ccccc4[nH]3)cc2OC)o1,"inconclusive: 25.1 µM [inhibitor, single point]",
O=c1nc(/C=C/c2cc([N+](=O)[O-])ccc2Cl)cc(C(F)(F)F)[nH]1,"inconclusive: 15.8 µM [inhibitor, partial curve]",

SMILES,Potency,"activity change, negative = inhibition"
CC(C)NS(=O)(=O)c1ccc(NC(=S)NC(=O)c2ccc(-c3ccccc3)cc2)cc1,active: 20 µM,
CCn1c(SCC(=O)NC(=O)NCc2ccco2)nc2sc(C)c(C)c2c1=O,"inconclusive: 12.6 µM [inhibitor, partial curve]",
CCOC(=O)CSc1nc2ccc(N3CCOCC3)cc2c(=O)n1Cc1ccc2c(c1)OCO2,inactive,
COc1cccc(/C(O)=C2/C(=O)C(=O)N(c3cc(C)on3)C2c2cccs2)c1 (stereo not given),"inconclusive: 0.158 µM [inhibitor, full curve, poor fit]",
O=C(c1csc2c1CCCC2)N1CCN(c2ccccc2)CC1,inactive,
CN(CCO)C(=O)CCC(=O)Nc1ccc(S(N)(=O)=O)cc1,inactive,
CC#C[C@@]1(O)CC[C@H]2[C@@H]3CCC4=CC(=O)CCC4=C3[C@H](c3ccc(N(C)C)cc3)C[C@]21C,"inconclusive: 12.6 µM [inhibitor, partial curve]",
CCCCc1ccc(C2C(C#N)=C(N)SC(N)=C2C#N)s1,active: 12.6 µM,
Clc1ccc(CSc2nccn2Cc2ccccc2)cc1,"inconclusive: 1.58 µM [inhibitor, partial curve]",
Oc1ccc2ccccc2c1C=NCc1cn2ccsc2n1,"inconclusive: 1.26 µM [inhibitor, full curve, poor fit]",
N#Cc1c(NC(=O)CSc2ncnc3sccc23)oc(-c2ccco2)c1-c1ccco1,"inconclusive: 12.6 µM [inhibitor, partial curve]",
Cc1ccc(/C=C/C(=O)Nc2ccc([N+](=O)[O-])cc2)o1,"inconclusive: 10 µM [inhibitor, partial curve]",
O=C1NC2=C(CCc3ccccc32)C(c2ccc(Br)cc2)N1 (stereo not given),"inconclusive: 12.6 µM [inhibitor, partial curve]",
O=C(NCc1ccco1)c1ccc2c(=O)n(-c3ccccc3)c(=S)[nH]c2c1,inactive,
CCn1c(-c2ccc(-c3ccccc3)cc2)c[nH]c1=S,"inconclusive: 7.94 µM [inhibitor, partial curve]",
COCCn1c(C)cc(C2=NNC(=Nc3ccc(F)cc3)SC2)c1C,"inconclusive: 3.98 µM [inhibitor, full curve]",
COc1ccc(-c2cc(-c3cccs3)c(C#N)c(SCC(=O)NCc3ccco3)n2)cc1,"inconclusive: 15.8 µM [inhibitor, partial curve]",
COC(=O)C1=C(C)OC(N)=C(C#N)C1C1CCCCC1 (stereo not given),inactive,
Cc1ccc(-c2nc3cccnc3o2)cc1NC(=O)COc1ccc(Cl)cc1C,"inconclusive: 25.1 µM [inhibitor, partial curve]",
CCOc1ccccc1Nc1nc(-c2sc(NC(=O)c3ccc([N+](=O)[O-])cc3)nc2C)cs1,"inconclusive: 20 µM [inhibitor, single point]",
Cc1ccc(OCc2n[nH]c(=S)n2C2CCCCC2)cc1,"inconclusive: 12.6 µM [inhibitor, partial curve]",
N#CC1=C2SCN(Cc3ccco3)CN2C(=O)CC1c1ccccc1F (stereo not given),"inconclusive: 25.1 µM [inhibitor, single point]",
